# This is one part of the list.
# B1: F17-L (Escherichia coli) (protein)
# chain: GPDDYVPSQIAVNTSTLPGVVIGPADAHTYPRVIGELAGTSNQYVFNGGAIALMRGKFTPALPKIGSITYTFHQGNSRDSSDFDIYDIGVSGLGIIIGMAGYWPATPLVPINSSGIYIDPVGANTNPNTYNGATASFGARLFVAFVATGRLPNGYITIPTRQLGTILLEAKRTSLNNKGLTAPVMLNGGRIQVQSQTHHHHHH
# What was measured:
# Experiment in all cases: glycan array binding signal (z-score within array); higher = stronger binding
# Details in all cases: glycan notation: IUPAC condensed, linker removed
# [1] = target: Fuc(a1-2)Gal(b1-4)GlcNAc(b1-3)Gal(b1-4)GlcNAc(b1-3)Gal(b1-4)GlcNAc
# Procedure, shortened: (§1)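 From the Consortium for Functional Glycomics database, 3228 arrays were curated, keeping only those whose protein sequence was available. Binding is given as a within-array Z-score averaged across arrays sharing a protein sequence and across linkers. Negative Z-scores can be read as non-binding.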
# [2] = target: Fuc(a1-2)Gal(b1-4)GlcNAc(b1-3)GalNAc
# Procedure, shortened: as §1
# [3] = target: Fuc(a1-2)Gal(b1-4)GlcNAc(b1-3)[Fuc(a1-2)Gal(b1-4)GlcNAc(b1-6)]GalNAc
# Procedure, shortened: as §1
# [4] = target: Fuc(a1-2)Gal(b1-4)GlcNAc(b1-3)[Fuc(a1-3)[Gal(b1-4)]GlcNAc(b1-6)]Gal(b1-4)Glc
# Procedure, shortened: as §1
# [5] = target: Fuc(a1-2)Gal(b1-4)GlcNAc(b1-6)GalNAc
# Procedure, shortened: as §1
# [6] = target: Fuc(a1-2)Gal(b1-4)GlcNAc6S
# Procedure, shortened: as §1
# [7] = target: Fuc(a1-2)Gal(b1-4)[Fuc(a1-3)]GlcNAc
# Procedure, shortened: as §1
# [8] = target: Fuc(a1-2)Gal(b1-4)[Fuc(a1-3)]GlcNAc(b1-2)Man(a1-3)[Fuc(a1-2)Gal(b1-4)[Fuc(a1-3)]GlcNAc(b1-2)Man(a1-6)]Man(b1-4)GlcNAc(b1-4)[Fuc(a1-6)]GlcNAc
# Procedure, shortened: as §1
# [9] = target: Fuc(a1-2)Gal(b1-4)[Fuc(a1-3)]GlcNAc(b1-2)[Fuc(a1-2)Gal(b1-4)[Fuc(a1-3)]GlcNAc(b1-4)]Man(a1-3)[Fuc(a1-2)Gal(b1-4)[Fuc(a1-3)]GlcNAc(b1-2)Man(a1-6)]Man(b1-4)GlcNAc(b1-4)GlcNAc
# Procedure, shortened: as §1
# [10] = target: Fuc(a1-2)Gal(b1-4)[Fuc(a1-3)]GlcNAc(b1-3)Gal(b1-4)[Fuc(a1-3)]GlcNAc
# Procedure, shortened: as §1
# [11] = target: Fuc(a1-2)Gal(b1-4)[Fuc(a1-3)]GlcNAc(b1-3)Gal(b1-4)[Fuc(a1-3)]GlcNAc(b1-3)Gal(b1-4)[Fuc(a1-3)]GlcNAc
# Procedure, shortened: as §1
# [12] = target: Fuc(a1-2)Gal(b1-4)[Fuc(a1-3)]GlcNAc(b1-3)GalNAc
# Procedure, shortened: as §1
# [13] = target: Fuc(a1-2)Gal(b1-4)[Fuc(a1-3)]GlcNAc(b1-3)[Neu5Ac(a2-6)Gal(b1-4)GlcNAc(b1-6)]Gal(b1-4)Glc
# Procedure, shortened: as §1
# [14] = target: Fuc(a1-2)Gal3S(b1-4)GlcNAc
# Procedure, shortened: as §1
# [15] = target: Fuc(a1-2)Gal6S(b1-3)GlcNAc
# Procedure, shortened: as §1
# [16] = target: Fuc(a1-2)Gal6S(b1-3)GlcNAc6S
# Procedure, shortened: as §1
# Fuc(a1-2)Gal6S(b1-4)Glc = target: Fuc(a1-2)Gal6S(b1-4)Glc
# Procedure, shortened: as §1
# [17] = target: Fuc(a1-2)Gal6S(b1-4)Glc6S
# Procedure, shortened: as §1
# Fuc(a1-2)[Gal(a1-3)]Gal = target: Fuc(a1-2)[Gal(a1-3)]Gal
# Procedure, shortened: as §1
# [18] = target: Fuc(a1-2)[Gal(a1-3)]Gal(b1-3)GalNAc
# Procedure, shortened: as §1
# [19] = target: Fuc(a1-2)[Gal(a1-3)]Gal(b1-3)GalNAc(b1-3)Gal(a1-4)Gal(b1-4)Glc
# Procedure, shortened: as §1
# [20] = target: Fuc(a1-2)[Gal(a1-3)]Gal(b1-3)GlcNAc
# Procedure, shortened: as §1
# [21] = target: Fuc(a1-2)[Gal(a1-3)]Gal(b1-3)GlcNAc(b1-2)Man(a1-3)[Fuc(a1-2)[Gal(a1-3)]Gal(b1-3)GlcNAc(b1-2)Man(a1-6)]Man(b1-4)GlcNAc(b1-4)GlcNAc
# Procedure, shortened: as §1
# [22] = target: Fuc(a1-2)[Gal(a1-3)]Gal(b1-3)GlcNAc(b1-2)Man(a1-3)[Fuc(a1-2)[Gal(a1-3)]Gal(b1-3)GlcNAc(b1-2)Man(a1-6)]Man(b1-4)GlcNAc(b1-4)[Fuc(a1-6)]GlcNAc
# Procedure, shortened: as §1
# [23] = target: Fuc(a1-2)[Gal(a1-3)]Gal(b1-3)GlcNAc(b1-3)GalNAc
# Procedure, shortened: as §1
# [24] = target: Fuc(a1-2)[Gal(a1-3)]Gal(b1-3)GlcNAc(b1-6)GalNAc
# Procedure, shortened: as §1
# [25] = target: Fuc(a1-2)[Gal(a1-3)]Gal(b1-4)Glc
# Procedure, shortened: as §1
# [26] = target: Fuc(a1-2)[Gal(a1-3)]Gal(b1-4)GlcNAc
# Procedure, shortened: as §1
# [27] = target: Fuc(a1-2)[Gal(a1-3)]Gal(b1-4)GlcNAc(b1-2)Man
# Procedure, shortened: as §1
# [28] = target: Fuc(a1-2)[Gal(a1-3)]Gal(b1-4)GlcNAc(b1-2)Man(a1-3)[Fuc(a1-2)[Gal(a1-3)]Gal(b1-4)GlcNAc(b1-2)Man(a1-6)]Man(b1-4)GlcNAc(b1-4)GlcNAc
# Procedure, shortened: as §1
# [29] = target: Fuc(a1-2)[Gal(a1-3)]Gal(b1-4)GlcNAc(b1-2)Man(a1-3)[Fuc(a1-2)[Gal(a1-3)]Gal(b1-4)GlcNAc(b1-2)Man(a1-6)]Man(b1-4)GlcNAc(b1-4)[Fuc(a1-6)]GlcNAc
# Procedure, shortened: as §1
# [30] = target: Fuc(a1-2)[Gal(a1-3)]Gal(b1-4)GlcNAc(b1-3)GalNAc
# Procedure, shortened: as §1
# [31] = target: Fuc(a1-2)[Gal(a1-3)]Gal(b1-4)GlcNAc(b1-6)GalNAc
# Procedure, shortened: as §1
# [32] = target: Fuc(a1-2)[Gal(a1-3)]Gal(b1-4)[Fuc(a1-3)]Glc
# Procedure, shortened: as §1
# [33] = target: Fuc(a1-2)[Gal(a1-3)]Gal(b1-4)[Fuc(a1-3)]GlcNAc
# Procedure, shortened: as §1
# [34] = target: Fuc(a1-2)[Gal(a1-3)]Gal(b1-4)[Fuc(a1-3)]GlcNAc(b1-3)GalNAc
# Procedure, shortened: as §1
# [35] = target: Fuc(a1-2)[Gal(a1-4)]Gal(b1-4)GlcNAc
# Procedure, shortened: as §1
# [36] = target: Fuc(a1-2)[GalNAc(a1-3)]Gal
# Procedure, shortened: as §1
# [37] = target: Fuc(a1-2)[GalNAc(a1-3)]Gal(b1-3)GalNAc(a1-3)[Fuc(a1-2)]Gal(b1-4)GlcNAc
# Procedure, shortened: as §1
# [38] = target: Fuc(a1-2)[GalNAc(a1-3)]Gal(b1-3)GalNAc(b1-3)Gal(a1-4)Gal(b1-4)Glc
# Procedure, shortened: as §1
# [39] = target: Fuc(a1-2)[GalNAc(a1-3)]Gal(b1-3)GlcNAc
# Procedure, shortened: as §1
# [40] = target: Fuc(a1-2)[GalNAc(a1-3)]Gal(b1-3)GlcNAc(b1-2)Man(a1-3)[Fuc(a1-2)[GalNAc(a1-3)]Gal(b1-3)GlcNAc(b1-2)Man(a1-6)]Man(b1-4)GlcNAc(b1-4)GlcNAc
# Procedure, shortened: as §1
# [41] = target: Fuc(a1-2)[GalNAc(a1-3)]Gal(b1-3)GlcNAc(b1-2)Man(a1-3)[Fuc(a1-2)[GalNAc(a1-3)]Gal(b1-3)GlcNAc(b1-2)Man(a1-6)]Man(b1-4)GlcNAc(b1-4)[Fuc(a1-6)]GlcNAc
# Procedure, shortened: as §1
# [42] = target: Fuc(a1-2)[GalNAc(a1-3)]Gal(b1-3)GlcNAc(b1-3)GalNAc
# Procedure, shortened: as §1
# [43] = target: Fuc(a1-2)[GalNAc(a1-3)]Gal(b1-3)GlcNAc(b1-6)GalNAc
# Procedure, shortened: as §1
binder,measurement,setting,value
B1,glycan array binding signal (z-score),[1],-0.056
same,glycan array binding signal (z-score),[2],0.006
same,glycan array binding signal (z-score),[3],-0.132
same,glycan array binding signal (z-score),[4],-0.151
same,glycan array binding signal (z-score),[5],0.014
same,glycan array binding signal (z-score),[6],-0.085
same,glycan array binding signal (z-score),[7],-0.184
same,glycan array binding signal (z-score),[8],-0.049
same,glycan array binding signal (z-score),[9],-0.199
same,glycan array binding signal (z-score),[10],-0.066
same,glycan array binding signal (z-score),[11],-0.129
same,glycan array binding signal (z-score),[12],-0.092
same,glycan array binding signal (z-score),[13],-0.136
same,glycan array binding signal (z-score),[14],-0.201
same,glycan array binding signal (z-score),[15],-0.091
same,glycan array binding signal (z-score),[16],0.024
same,glycan array binding signal (z-score),Fuc(a1-2)Gal6S(b1-4)Glc,-0.156
same,glycan array binding signal (z-score),[17],0.046
same,glycan array binding signal (z-score),Fuc(a1-2)[Gal(a1-3)]Gal,-0.103
same,glycan array binding signal (z-score),[18],-0.174
same,glycan array binding signal (z-score),[19],-0.026
same,glycan array binding signal (z-score),[20],-0.17
same,glycan array binding signal (z-score),[21],-0.111
same,glycan array binding signal (z-score),[22],-0.039
same,glycan array binding signal (z-score),[23],-0.097
same,glycan array binding signal (z-score),[24],-0.134
same,glycan array binding signal (z-score),[25],-0.117
same,glycan array binding signal (z-score),[26],-0.065
same,glycan array binding signal (z-score),[27],0.196
same,glycan array binding signal (z-score),[28],0.019
same,glycan array binding signal (z-score),[29],0.01
same,glycan array binding signal (z-score),[30],-0.047
same,glycan array binding signal (z-score),[31],-0.039
same,glycan array binding signal (z-score),[32],-0.178
same,glycan array binding signal (z-score),[33],-0.097
same,glycan array binding signal (z-score),[34],-0.138
same,glycan array binding signal (z-score),[35],-0.024
same,glycan array binding signal (z-score),[36],-0.162
same,glycan array binding signal (z-score),[37],-0.08
same,glycan array binding signal (z-score),[38],0.104
same,glycan array binding signal (z-score),[39],-0.064
same,glycan array binding signal (z-score),[40],-0.078
same,glycan array binding signal (z-score),[41],-0.118
same,glycan array binding signal (z-score),[42],-0.13
same,glycan array binding signal (z-score),[43],-0.007

# From the supplement of paper PMC8728848
